# Reference: the supplement of paper PMC8728848
# Some of the results follow.
# Assays:
# Assay in all cases: glycan array binding signal (z-score within array); higher = stronger binding
# Details in all cases: glycan notation: IUPAC condensed, linker removed
# Neu5Ac(a2-6)Gal = molecular target: Neu5Ac(a2-6)Gal
# How it was run: (§1)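 Columns mapping to the same glycan were averaged after glycan names were converted to IUPAC-condensed notation. The data come from 3228 arrays in the Consortium for Functional Glycomics database, limited to those with an available protein sequence. Binding is reported as a within-array Z-score averaged across arrays of one protein sequence and across linkers.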
# [1] = molecular target: Neu5Ac(a2-6)Gal(b1-3)GlcNAc(b1-3)[Gal(b1-4)GlcNAc(b1-6)]Gal(b1-4)Glc
# How it was run: as §1
# Neu5Ac(a2-6)Gal(b1-4)Glc = molecular target: Neu5Ac(a2-6)Gal(b1-4)Glc
# How it was run: as §1
# [2] = molecular target: Neu5Ac(a2-6)Gal(b1-4)GlcNAc
# How it was run: as §1
# [3] = molecular target: Neu5Ac(a2-6)Gal(b1-4)GlcNAc(b1-2)Man
# How it was run: as §1
# [4] = molecular target: Neu5Ac(a2-6)Gal(b1-4)GlcNAc(b1-2)Man(a1-3)Man(b1-4)GlcNAc(b1-4)GlcNAc
# How it was run: as §1
# [5] = molecular target: Neu5Ac(a2-6)Gal(b1-4)GlcNAc(b1-2)Man(a1-3)[Gal(b1-4)GlcNAc(b1-2)Man(a1-6)]Man(b1-4)GlcNAc(b1-4)GlcNAc
# How it was run: as §1
# [6] = molecular target: Neu5Ac(a2-6)Gal(b1-4)GlcNAc(b1-2)Man(a1-3)[GlcNAc(b1-2)Man(a1-6)]Man(b1-4)GlcNAc(b1-4)GlcNAc
# How it was run: as §1
# [7] = molecular target: Neu5Ac(a2-6)Gal(b1-4)GlcNAc(b1-2)Man(a1-3)[GlcNAc(b1-2)Man(b1-4)GlcNAc(b1-2)Man(a1-6)]Man(b1-4)GlcNAc(b1-4)GlcNAc
# How it was run: as §1
# [8] = molecular target: Neu5Ac(a2-6)Gal(b1-4)GlcNAc(b1-2)Man(a1-3)[GlcNAc(b1-4)][Neu5Ac(a2-6)Gal(b1-4)GlcNAc(b1-2)Man(a1-6)]Man(b1-4)GlcNAc(b1-4)GlcNAc
# How it was run: as §1
# [9] = molecular target: Neu5Ac(a2-6)Gal(b1-4)GlcNAc(b1-2)Man(a1-3)[Man(a1-6)]Man(b1-4)GlcNAc(b1-4)GlcNAc
# How it was run: as §1
# [10] = molecular target: Neu5Ac(a2-6)Gal(b1-4)GlcNAc(b1-2)Man(a1-3)[Neu5Ac(a2-3)Gal(b1-4)GlcNAc(b1-2)Man(a1-6)]Man(b1-4)GlcNAc(b1-4)GlcNAc
# How it was run: as §1
# [11] = molecular target: Neu5Ac(a2-6)Gal(b1-4)GlcNAc(b1-2)Man(a1-3)[Neu5Ac(a2-6)Gal(b1-4)GlcNAc(b1-2)Man(a1-6)]Man(b1-4)GlcNAc(b1-4)GlcNAc
# How it was run: as §1
# [12] = molecular target: Neu5Ac(a2-6)Gal(b1-4)GlcNAc(b1-2)Man(a1-3)[Neu5Ac(a2-6)Gal(b1-4)GlcNAc(b1-2)Man(a1-6)]Man(b1-4)GlcNAc(b1-4)[Fuc(a1-6)]GlcNAc
# How it was run: as §1
# [13] = molecular target: Neu5Ac(a2-6)Gal(b1-4)GlcNAc(b1-2)Man(a1-6)Man(b1-4)GlcNAc(b1-4)GlcNAc
# How it was run: as §1
# [14] = molecular target: Neu5Ac(a2-6)Gal(b1-4)GlcNAc(b1-2)Man(a1-6)[Gal(b1-4)GlcNAc(b1-2)Man(a1-3)]Man(b1-4)GlcNAc(b1-4)GlcNAc
# How it was run: as §1
# [15] = molecular target: Neu5Ac(a2-6)Gal(b1-4)GlcNAc(b1-2)Man(a1-6)[GlcNAc(b1-2)Man(a1-3)]Man(b1-4)GlcNAc(b1-4)GlcNAc
# How it was run: as §1
# [16] = molecular target: Neu5Ac(a2-6)Gal(b1-4)GlcNAc(b1-2)Man(a1-6)[Man(a1-3)]Man(b1-4)GlcNAc(b1-4)GlcNAc
# How it was run: as §1
# [17] = molecular target: Neu5Ac(a2-6)Gal(b1-4)GlcNAc(b1-2)[Neu5Ac(a2-6)Gal(b1-4)GlcNAc(b1-4)]Man(a1-3)[GlcNAc(b1-4)][Neu5Ac(a2-6)Gal(b1-4)GlcNAc(b1-2)[Neu5Ac(a2-6)Gal(b1-4)GlcNAc(b1-6)]Man(a1-6)]Man(b1-4)GlcNAc(b1-4)GlcNAc
# How it was run: as §1
# [18] = molecular target: Neu5Ac(a2-6)Gal(b1-4)GlcNAc(b1-2)[Neu5Ac(a2-6)Gal(b1-4)GlcNAc(b1-4)]Man(a1-3)[GlcNAc(b1-4)][Neu5Ac(a2-6)Gal(b1-4)GlcNAc(b1-4)Man(a1-6)]Man(b1-4)GlcNAc(b1-4)GlcNAc
# How it was run: as §1
# [19] = molecular target: Neu5Ac(a2-6)Gal(b1-4)GlcNAc(b1-2)[Neu5Ac(a2-6)Gal(b1-4)GlcNAc(b1-6)]Man(a1-6)[Neu5Ac(a2-6)Gal(b1-4)GlcNAc(b1-2)Man(a1-3)][GlcNAc(b1-4)]Man(b1-4)GlcNAc(b1-4)GlcNAc
# How it was run: as §1
# [20] = molecular target: Neu5Ac(a2-6)Gal(b1-4)GlcNAc(b1-3)Gal(b1-3)GlcNAc
# How it was run: as §1
# [21] = molecular target: Neu5Ac(a2-6)Gal(b1-4)GlcNAc(b1-3)Gal(b1-4)GlcNAc
# How it was run: as §1
# [22] = molecular target: Neu5Ac(a2-6)Gal(b1-4)GlcNAc(b1-3)Gal(b1-4)GlcNAc(b1-2)Man(a1-3)[Neu5Ac(a2-6)Gal(b1-4)GlcNAc(b1-3)Gal(b1-4)GlcNAc(b1-2)Man(a1-6)]GalNAc
# How it was run: as §1
# [23] = molecular target: Neu5Ac(a2-6)Gal(b1-4)GlcNAc(b1-3)Gal(b1-4)GlcNAc(b1-3)Gal(b1-4)GlcNAc
# How it was run: as §1
# [24] = molecular target: Neu5Ac(a2-6)Gal(b1-4)GlcNAc(b1-3)Gal(b1-4)GlcNAc(b1-3)Gal(b1-4)GlcNAc(b1-2)Man(a1-3)[Neu5Ac(a2-6)Gal(b1-4)GlcNAc(b1-3)Gal(b1-4)GlcNAc(b1-3)Gal(b1-4)GlcNAc(b1-2)Man(a1-6)]GalNAc
# How it was run: as §1
# [25] = molecular target: Neu5Ac(a2-6)Gal(b1-4)GlcNAc(b1-3)Gal(b1-4)GlcNAc(b1-3)GalNAc
# How it was run: as §1
# [26] = molecular target: Neu5Ac(a2-6)Gal(b1-4)GlcNAc(b1-3)Gal(b1-4)GlcNAc(b1-3)[Neu5Ac(a2-6)Gal(b1-4)GlcNAc(b1-3)Gal(b1-4)GlcNAc(b1-6)]GalNAc
# How it was run: as §1
# [27] = molecular target: Neu5Ac(a2-6)Gal(b1-4)GlcNAc(b1-3)Gal(b1-4)GlcNAc(b1-6)[Gal(b1-3)]GalNAc
# How it was run: as §1
# [28] = molecular target: Neu5Ac(a2-6)Gal(b1-4)GlcNAc(b1-3)Gal(b1-4)[Fuc(a1-3)]GlcNAc(b1-3)Gal(b1-4)[Fuc(a1-3)]GlcNAc
# How it was run: as §1
# [29] = molecular target: Neu5Ac(a2-6)Gal(b1-4)GlcNAc(b1-3)GalNAc
# How it was run: as §1
# [30] = molecular target: Neu5Ac(a2-6)Gal(b1-4)GlcNAc(b1-3)[Neu5Ac(a2-6)Gal(b1-4)GlcNAc(b1-6)]GalNAc
# How it was run: as §1
# [31] = molecular target: Neu5Ac(a2-6)Gal(b1-4)GlcNAc(b1-6)GalNAc
# How it was run: as §1
# [32] = molecular target: Neu5Ac(a2-6)Gal(b1-4)GlcNAc(b1-6)[Gal(b1-3)GlcNAc(b1-3)]Gal(b1-4)Glc
# How it was run: as §1
# [33] = molecular target: Neu5Ac(a2-6)Gal(b1-4)GlcNAc(b1-6)[Gal(b1-3)]GalNAc
# How it was run: as §1
# [34] = molecular target: Neu5Ac(a2-6)Gal(b1-4)GlcNAc6S
# How it was run: as §1
binder,measurement,setting,value
"Gal 1 (Mus musculus), P16045 (protein) MACGLVASNLNLKPGECLKVRGEVASDAKSFVLNLGKDSNNLCLHFNPRFNAHGDANTIVCNTKEDGTWGTEHREPAFPFQPGSITEVCITFDQADLTIKLPDGHEFKFPNRLNMEAINYMAADGDFKIKCVAFE",glycan array binding signal (z-score),Neu5Ac(a2-6)Gal,-0.435
same,glycan array binding signal (z-score),[1],-0.279
same,glycan array binding signal (z-score),Neu5Ac(a2-6)Gal(b1-4)Glc,-0.31
same,glycan array binding signal (z-score),[2],-0.345
same,glycan array binding signal (z-score),[3],-0.343
same,glycan array binding signal (z-score),[4],0.026
same,glycan array binding signal (z-score),[5],-0.155
same,glycan array binding signal (z-score),[6],-0.409
same,glycan array binding signal (z-score),[7],-0.012
same,glycan array binding signal (z-score),[8],-0.393
same,glycan array binding signal (z-score),[9],-0.247
same,glycan array binding signal (z-score),[10],-0.219
same,glycan array binding signal (z-score),[11],0.231
same,glycan array binding signal (z-score),[12],-0.232
same,glycan array binding signal (z-score),[13],-0.309
same,glycan array binding signal (z-score),[14],-0.129
same,glycan array binding signal (z-score),[15],-0.289
same,glycan array binding signal (z-score),[16],-0.245
same,glycan array binding signal (z-score),[17],-0.4
same,glycan array binding signal (z-score),[18],-0.331
same,glycan array binding signal (z-score),[19],-0.329
same,glycan array binding signal (z-score),[20],-0.443
same,glycan array binding signal (z-score),[21],-0.348
same,glycan array binding signal (z-score),[22],-0.193
same,glycan array binding signal (z-score),[23],-0.472
same,glycan array binding signal (z-score),[24],0.96
same,glycan array binding signal (z-score),[25],-0.219
same,glycan array binding signal (z-score),[26],1.13
same,glycan array binding signal (z-score),[27],-0.169
same,glycan array binding signal (z-score),[28],-0.335
same,glycan array binding signal (z-score),[29],-0.162
same,glycan array binding signal (z-score),[30],-0.359
same,glycan array binding signal (z-score),[31],-0.234
same,glycan array binding signal (z-score),[32],0.027
same,glycan array binding signal (z-score),[33],-0.257
same,glycan array binding signal (z-score),[34],-0.161
